# Experimental data published in the supplement of paper PMC8728848.
# The other results are listed elsewhere or left out.
# Assays:
# Assay in all cases: glycan array binding signal (z-score within array); higher = stronger binding
# Conditions in all cases: glycan notation: IUPAC condensed, linker removed
# [1] = target: Fuc(a1-3)[Gal3S(b1-4)]GlcNAc
# How it was run: (§1)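 Glycan array data were curated from 3228 arrays in the Consortium for Functional Glycomics database and kept only where the protein sequence was available. Glycan names were converted to IUPAC-condensed notation, and columns mapping to the same glycan were averaged. The binding signal is a within-array Z-score, averaged across arrays of the same protein sequence at different concentrations or buffers and across linkers. Negative Z-scores can be read as non-binding.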
# [2] = target: Fuc(a1-3)[Gal3S(b1-4)]GlcNAc6S
# How it was run: as §1
# [3] = target: Fuc(a1-3)[GalNAc(b1-4)]GlcNAc
# How it was run: as §1
# Fuc(a1-4)GlcNAc = target: Fuc(a1-4)GlcNAc
# How it was run: as §1
# Fuc(b1-3)GlcNAc = target: Fuc(b1-3)GlcNAc
# How it was run: as §1
# Gal(a1-2)Gal = target: Gal(a1-2)Gal
# How it was run: as §1
# Gal(a1-3)Gal = target: Gal(a1-3)Gal
# How it was run: as §1
# Gal(a1-3)Gal(b1-3)GlcNAc = target: Gal(a1-3)Gal(b1-3)GlcNAc
# How it was run: as §1
# [4] = target: Gal(a1-3)Gal(b1-3)GlcNAc(b1-2)Man(a1-3)[Gal(a1-3)Gal(b1-3)GlcNAc(b1-2)Man(a1-6)]Man(b1-4)GlcNAc(b1-4)GlcNAc
# How it was run: as §1
# [5] = target: Gal(a1-3)Gal(b1-3)[Fuc(a1-4)]GlcNAc(b1-2)Man(a1-3)[Gal(a1-3)Gal(b1-3)[Fuc(a1-4)]GlcNAc(b1-2)Man(a1-6)]Man(b1-4)GlcNAc(b1-4)GlcNAc
# How it was run: as §1
# Gal(a1-3)Gal(b1-4)Glc = target: Gal(a1-3)Gal(b1-4)Glc
# How it was run: as §1
# Gal(a1-3)Gal(b1-4)GlcNAc = target: Gal(a1-3)Gal(b1-4)GlcNAc
# How it was run: as §1
# [6] = target: Gal(a1-3)Gal(b1-4)GlcNAc(b1-3)GalNAc
# How it was run: as §1
# [7] = target: Gal(a1-3)Gal(b1-4)[Fuc(a1-3)]GlcNAc
# How it was run: as §1
# [8] = target: Gal(a1-3)Gal(b1-4)[Fuc(a1-3)]GlcNAc(b1-2)Man(a1-3)[Gal(a1-3)Gal(b1-4)[Fuc(a1-3)]GlcNAc(b1-2)Man(a1-6)]Man(b1-4)GlcNAc(b1-4)GlcNAc
# How it was run: as §1
# Gal(a1-3)GalNAc = target: Gal(a1-3)GalNAc
# How it was run: as §1
# [9] = target: Gal(a1-3)[Gal(a1-4)]Gal(b1-4)GlcNAc
# How it was run: as §1
# [10] = target: Gal(a1-4)Gal(b1-3)GlcNAc(b1-2)Man(a1-3)[Gal(a1-4)Gal(b1-3)GlcNAc(b1-2)Man(a1-6)]Man(b1-4)GlcNAc(b1-4)GlcNAc
# How it was run: as §1
# Gal(a1-4)Gal(b1-4)Glc = target: Gal(a1-4)Gal(b1-4)Glc
# How it was run: as §1
# Gal(a1-4)Gal(b1-4)GlcNAc = target: Gal(a1-4)Gal(b1-4)GlcNAc
# How it was run: as §1
# [11] = target: Gal(a1-4)Gal(b1-4)GlcNAc(b1-2)Man(a1-3)[Gal(a1-4)Gal(b1-4)GlcNAc(b1-2)Man(a1-6)]Man(b1-4)GlcNAc(b1-4)GlcNAc
# How it was run: as §1
# [12] = target: Gal(a1-4)Gal(b1-4)GlcNAc(b1-3)Gal(b1-4)Glc
# How it was run: as §1
# Gal(a1-4)GlcNAc = target: Gal(a1-4)GlcNAc
# How it was run: as §1
# Gal(a1-6)Glc = target: Gal(a1-6)Glc
# How it was run: as §1
# Gal(b1-2)Gal = target: Gal(b1-2)Gal
# How it was run: as §1
# Gal(b1-3)Gal = target: Gal(b1-3)Gal
# How it was run: as §1
# Gal(b1-3)Gal(b1-4)GlcNAc = target: Gal(b1-3)Gal(b1-4)GlcNAc
# How it was run: as §1
# [13] = target: Gal(b1-3)Gal(b1-4)GlcNAc(b1-2)Man(a1-3)[Gal(b1-3)Gal(b1-4)GlcNAc(b1-2)Man(a1-6)]Man(b1-4)GlcNAc(b1-4)GlcNAc
# How it was run: as §1
# Gal(b1-3)GalNAc = target: Gal(b1-3)GalNAc
# How it was run: as §1
# [14] = target: Gal(b1-3)GalNAc(a1-3)[Fuc(a1-2)]Gal(b1-4)Glc
# How it was run: as §1
# [15] = target: Gal(b1-3)GalNAc(a1-3)[Fuc(a1-2)]Gal(b1-4)GlcNAc
# How it was run: as §1
# [16] = target: Gal(b1-3)GalNAc(b1-3)Gal(a1-4)Gal(b1-4)Glc
# How it was run: as §1
# [17] = target: Gal(b1-3)GalNAc(b1-4)Gal(b1-4)Glc
# How it was run: as §1
# [18] = target: Gal(b1-3)GalNAc(b1-4)[Neu5Ac(a2-3)]Gal(b1-4)Glc
# How it was run: as §1
# Gal(b1-3)GlcNAc = target: Gal(b1-3)GlcNAc
# How it was run: as §1
# [19] = target: Gal(b1-3)GlcNAc(a1-6)Gal(b1-4)GlcNAc
# How it was run: as §1
# [20] = target: Gal(b1-3)GlcNAc(b1-2)Man(a1-3)[Gal(b1-3)GlcNAc(b1-2)Man(a1-6)]Man(b1-4)GlcNAc(b1-4)GlcNAc
# How it was run: as §1
# [21] = target: Gal(b1-3)GlcNAc(b1-2)Man(a1-3)[Gal(b1-3)GlcNAc(b1-2)Man(a1-6)]Man(b1-4)GlcNAc(b1-4)[Fuc(a1-6)]GlcNAc
# How it was run: as §1
# [22] = target: Gal(b1-3)GlcNAc(b1-3)Gal(b1-3)GlcNAc
# How it was run: as §1
# [23] = target: Gal(b1-3)GlcNAc(b1-3)Gal(b1-4)Glc
# How it was run: as §1
# [24] = target: Gal(b1-3)GlcNAc(b1-3)Gal(b1-4)GlcNAc
# How it was run: as §1
# [25] = target: Gal(b1-3)GlcNAc(b1-3)Gal(b1-4)GlcNAc(b1-6)[Gal(b1-3)GlcNAc(b1-3)]Gal(b1-4)Glc
# How it was run: as §1
# [26] = target: Gal(b1-3)GlcNAc(b1-3)Gal(b1-4)[Fuc(a1-3)]GlcNAc(b1-6)[Gal(b1-3)GlcNAc(b1-3)]Gal(b1-4)Glc
# How it was run: as §1
# [27] = target: Gal(b1-3)GlcNAc(b1-3)GalNAc
# How it was run: as §1
# [28] = target: Gal(b1-3)GlcNAc(b1-6)Gal(b1-4)GlcNAc
# How it was run: as §1
# [29] = target: Gal(b1-3)[Fuc(a1-4)]GlcNAc
# How it was run: as §1
# [30] = target: Gal(b1-3)[Fuc(a1-4)]GlcNAc(b1-2)Man(a1-3)[Gal(b1-3)[Fuc(a1-4)]GlcNAc(b1-2)Man(a1-6)]Man(b1-4)GlcNAc(b1-4)GlcNAc
# How it was run: as §1
# [31] = target: Gal(b1-3)[Fuc(a1-4)]GlcNAc(b1-2)Man(a1-3)[Gal(b1-3)[Fuc(a1-4)]GlcNAc(b1-2)Man(a1-6)]Man(b1-4)GlcNAc(b1-4)[Fuc(a1-6)]GlcNAc
# How it was run: as §1
# [32] = target: Gal(b1-3)[Fuc(a1-4)]GlcNAc(b1-3)Gal(b1-3)[Fuc(a1-4)]GlcNAc
# How it was run: as §1
# [33] = target: Gal(b1-3)[Fuc(a1-4)]GlcNAc(b1-3)Gal(b1-4)GlcNAc
# How it was run: as §1
# [34] = target: Gal(b1-3)[Fuc(a1-4)]GlcNAc(b1-3)Gal(b1-4)[Fuc(a1-3)]GlcNAc
# How it was run: as §1
# [35] = target: Gal(b1-3)[GlcNAc(b1-6)]GalNAc
# How it was run: as §1
# [36] = target: Gal(b1-3)[Neu5Ac(a2-6)]GalNAc
# How it was run: as §1
# [37] = target: Gal(b1-3)[Neu5Ac(a2-6)]GlcNAc(b1-6)Gal(b1-4)Glc
# How it was run: as §1
# [38] = target: Gal(b1-3)[Neu5Ac(b2-6)]GalNAc
# How it was run: as §1
# [39] = target: Gal(b1-4)GalNAc(a1-3)[Fuc(a1-2)]Gal(b1-4)GlcNAc
# How it was run: as §1
# [40] = target: Gal(b1-4)GalNAc(b1-3)[Fuc(a1-2)]Gal(b1-4)GlcNAc
# How it was run: as §1
# Gal(b1-4)Glc = target: Gal(b1-4)Glc
# How it was run: as §1
# Gal(b1-4)Glc6S = target: Gal(b1-4)Glc6S
# How it was run: as §1
# Gal(b1-4)GlcNAc = target: Gal(b1-4)GlcNAc
# How it was run: as §1
binder,measurement,setting,value
"CTLY 1 (Homo sapiens), Q6ZS10 (protein) AITCPEGWLPFEGKCYYFSPSTKSWDEARMFCQENYSHLVIINSFAEHNFVAKAHGSPRVYWLGLNDRAQEGDWRWLDGSPVTLSFWEPEEPNNIHDEDCATMNKGGTWNDLSCYKTTYWICERKGLNDIFEAQKIEWHE",glycan array binding signal (z-score),[1],0.198
same,glycan array binding signal (z-score),[2],0.914
same,glycan array binding signal (z-score),[3],-0.188
same,glycan array binding signal (z-score),Fuc(a1-4)GlcNAc,-0.24
same,glycan array binding signal (z-score),Fuc(b1-3)GlcNAc,-0.213
same,glycan array binding signal (z-score),Gal(a1-2)Gal,-0.245
same,glycan array binding signal (z-score),Gal(a1-3)Gal,-0.247
same,glycan array binding signal (z-score),Gal(a1-3)Gal(b1-3)GlcNAc,-0.241
same,glycan array binding signal (z-score),[4],-0.23
same,glycan array binding signal (z-score),[5],-0.04
same,glycan array binding signal (z-score),Gal(a1-3)Gal(b1-4)Glc,-0.245
same,glycan array binding signal (z-score),Gal(a1-3)Gal(b1-4)GlcNAc,-0.233
same,glycan array binding signal (z-score),[6],-0.25
same,glycan array binding signal (z-score),[7],0.004
same,glycan array binding signal (z-score),[8],-0.118
same,glycan array binding signal (z-score),Gal(a1-3)GalNAc,-0.24
same,glycan array binding signal (z-score),[9],-0.253
same,glycan array binding signal (z-score),[10],-0.122
same,glycan array binding signal (z-score),Gal(a1-4)Gal(b1-4)Glc,-0.252
same,glycan array binding signal (z-score),Gal(a1-4)Gal(b1-4)GlcNAc,-0.233
same,glycan array binding signal (z-score),[11],-0.231
same,glycan array binding signal (z-score),[12],-0.255
same,glycan array binding signal (z-score),Gal(a1-4)GlcNAc,-0.246
same,glycan array binding signal (z-score),Gal(a1-6)Glc,-0.242
same,glycan array binding signal (z-score),Gal(b1-2)Gal,-0.229
same,glycan array binding signal (z-score),Gal(b1-3)Gal,-0.248
same,glycan array binding signal (z-score),Gal(b1-3)Gal(b1-4)GlcNAc,-0.245
same,glycan array binding signal (z-score),[13],-0.232
same,glycan array binding signal (z-score),Gal(b1-3)GalNAc,-0.238
same,glycan array binding signal (z-score),[14],-0.242
same,glycan array binding signal (z-score),[15],-0.237
same,glycan array binding signal (z-score),[16],-0.229
same,glycan array binding signal (z-score),[17],-0.241
same,glycan array binding signal (z-score),[18],-0.249
same,glycan array binding signal (z-score),Gal(b1-3)GlcNAc,-0.246
same,glycan array binding signal (z-score),[19],-0.236
same,glycan array binding signal (z-score),[20],-0.056
same,glycan array binding signal (z-score),[21],-0.139
same,glycan array binding signal (z-score),[22],-0.251
same,glycan array binding signal (z-score),[23],-0.245
same,glycan array binding signal (z-score),[24],-0.224
same,glycan array binding signal (z-score),[25],-0.224
same,glycan array binding signal (z-score),[26],-0.233
same,glycan array binding signal (z-score),[27],-0.233
same,glycan array binding signal (z-score),[28],-0.234
same,glycan array binding signal (z-score),[29],0.451
same,glycan array binding signal (z-score),[30],-0.179
same,glycan array binding signal (z-score),[31],0.746
same,glycan array binding signal (z-score),[32],0.622
same,glycan array binding signal (z-score),[33],-0.216
same,glycan array binding signal (z-score),[34],1.2
same,glycan array binding signal (z-score),[35],-0.228
same,glycan array binding signal (z-score),[36],-0.228
same,glycan array binding signal (z-score),[37],-0.24
same,glycan array binding signal (z-score),[38],-0.248
same,glycan array binding signal (z-score),[39],-0.224
same,glycan array binding signal (z-score),[40],-0.216
same,glycan array binding signal (z-score),Gal(b1-4)Glc,-0.243
same,glycan array binding signal (z-score),Gal(b1-4)Glc6S,-0.248
same,glycan array binding signal (z-score),Gal(b1-4)GlcNAc,-0.245
